# Data published in paper PMC9911399, “Two distinct binding modes provide the RNA-binding protein RbFox with extraordinary sequence specificity”.
# Positions count from the first letter of the chain named. The list shows a part of the results.
# T1: RBFOX1 RRM RbFoxmut (Fox-RRM*) (Homo sapiens, UniProt Q9NWB1 109-208, R118D;E147R;N151S;E152T)
# T1 sequence: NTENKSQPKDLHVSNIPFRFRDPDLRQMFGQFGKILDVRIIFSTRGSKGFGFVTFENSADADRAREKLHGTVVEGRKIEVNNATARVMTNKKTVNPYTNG
# B1: UUCAUAC (DNA:RNA)
# RNA: GGGAGACCGGAAUUCAGAUUGUCCUUCAUACUUAAAUCCCGUCGUAGCCACCA
# DNA 1: CAATCTGAATTCCGGTCTCCC
# DNA 2: TGGTGGCTACGACGGGATT
# B2: CCAGUGA (DNA:RNA)
# RNA: B1 RNA with U25C, U26C, C27A, A28G, A30G, C31A
# DNA 1: CAATCTGAATTCCGGTCTCCC
# DNA 2: TGGTGGCTACGACGGGATT
# B3: AAGAUAA (DNA:RNA)
# RNA: B1 RNA with U25A, U26A, C27G, C31A
# DNA 1: CAATCTGAATTCCGGTCTCCC
# DNA 2: TGGTGGCTACGACGGGATT
# B4: GACUUCA (DNA:RNA)
# RNA: B1 RNA with U25G, U26A, A28U, A30C, C31A
# DNA 1: CAATCTGAATTCCGGTCTCCC
# DNA 2: TGGTGGCTACGACGGGATT
# B5: UUUAAGG (DNA:RNA)
# RNA: B1 RNA with C27U, U29A, A30G, C31G
# DNA 1: CAATCTGAATTCCGGTCTCCC
# DNA 2: TGGTGGCTACGACGGGATT
# B6: AGCUUAG (DNA:RNA)
# RNA: B1 RNA with U25A, U26G, A28U, C31G
# DNA 1: CAATCTGAATTCCGGTCTCCC
# DNA 2: TGGTGGCTACGACGGGATT
# B7: UUAGCAG (DNA:RNA)
# RNA: B1 RNA with C27A, A28G, U29C, C31G
# DNA 1: CAATCTGAATTCCGGTCTCCC
# DNA 2: TGGTGGCTACGACGGGATT
# B8: UGACCGA (DNA:RNA)
# RNA: B1 RNA with U26G, C27A, A28C, U29C, A30G, C31A
# DNA 1: CAATCTGAATTCCGGTCTCCC
# DNA 2: TGGTGGCTACGACGGGATT
# B9: CUUGCCU (DNA:RNA)
# RNA: B1 RNA with U25C, C27U, A28G, U29C, A30C, C31U
# DNA 1: CAATCTGAATTCCGGTCTCCC
# DNA 2: TGGTGGCTACGACGGGATT
# B10: UCCUAUC (DNA:RNA)
# RNA: B1 RNA with U26C, A28U, U29A, A30U
# DNA 1: CAATCTGAATTCCGGTCTCCC
# DNA 2: TGGTGGCTACGACGGGATT
# B11: GCUGAUG (DNA:RNA)
# RNA: GGGAGACCGGAAUUCAGAUUGUCCGCUGAUGUUAAAUCCCGUCGUAGCCACCA
# DNA 1: CAATCTGAATTCCGGTCTCCC
# DNA 2: TGGTGGCTACGACGGGATT
# B12: AAGGCUG (DNA:RNA)
# RNA: B11 RNA with G25A, C26A, U27G, A29C
# DNA 1: CAATCTGAATTCCGGTCTCCC
# DNA 2: TGGTGGCTACGACGGGATT
# B13: UACUGGA (DNA:RNA)
# RNA: B1 RNA with U26A, A28U, U29G, A30G, C31A
# DNA 1: CAATCTGAATTCCGGTCTCCC
# DNA 2: TGGTGGCTACGACGGGATT
# B14: UAUUGCA (DNA:RNA)
# RNA: B11 RNA with G25U, C26A, G28U, A29G, U30C, G31A
# DNA 1: CAATCTGAATTCCGGTCTCCC
# DNA 2: TGGTGGCTACGACGGGATT
# B15: CUCCGUA (DNA:RNA)
# RNA: B1 RNA with U25C, A28C, U29G, A30U, C31A
# DNA 1: CAATCTGAATTCCGGTCTCCC
# DNA 2: TGGTGGCTACGACGGGATT
# B16: AGAACGA (DNA:RNA)
# RNA: B1 RNA with U25A, U26G, C27A, U29C, A30G, C31A
# DNA 1: CAATCTGAATTCCGGTCTCCC
# DNA 2: TGGTGGCTACGACGGGATT
# B17: GUCGGAC (DNA:RNA)
# RNA: B1 RNA with U25G, A28G, U29G
# DNA 1: CAATCTGAATTCCGGTCTCCC
# DNA 2: TGGTGGCTACGACGGGATT
# B18: CUCAAGC (DNA:RNA)
# RNA: B1 RNA with U25C, U29A, A30G
# DNA 1: CAATCTGAATTCCGGTCTCCC
# DNA 2: TGGTGGCTACGACGGGATT
# B19: CAGAAUA (DNA:RNA)
# RNA: B11 RNA with G25C, C26A, U27G, G28A, G31A
# DNA 1: CAATCTGAATTCCGGTCTCCC
# DNA 2: TGGTGGCTACGACGGGATT
# B20: UUCGUAA (DNA:RNA)
# RNA: B1 RNA with A28G, C31A
# DNA 1: CAATCTGAATTCCGGTCTCCC
# DNA 2: TGGTGGCTACGACGGGATT
# Molecular target: T1, RBFOX1 RRM RbFoxmut (Fox-RRM*)
# Test: EMSA; HiTS-Eq, 1 nM pool, 10 min; buffer printed only for the single-RNA assays: 10 mM Tris pH 7.5, 150 mM NaCl, 3.4 mM EDTA, 0.001% NP-40, 30 C
# Details: tags: His6 N-terminal (pET28a); label: 5' 32P
# In short: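 Relative association constants, normalised to the cognate motif, were derived by comparing read counts of each RNA species with those of the control reaction. The RNA sequenced was the free fraction, separated by 8% native PAGE after a 10 min equilibration in 50 µL of 1 nM 5′-radiolabelled RNA (7 randomized nucleotides) with increasing concentrations of purified wild-type or mutant RbFox RRM.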
row,Binder,binding signal
1,B1,0.0803 KA relative to UGCAUGU
2,B2,0.108 KA relative to UGCAUGU
3,B3,0.0722 KA relative to UGCAUGU
4,B4,0.103 KA relative to UGCAUGU
5,B5,0.0851 KA relative to UGCAUGU
6,B6,0.142 KA relative to UGCAUGU
7,B7,0.0971 KA relative to UGCAUGU
8,B8,0.101 KA relative to UGCAUGU
9,B9,0.106 KA relative to UGCAUGU
10,B10,0.0794 KA relative to UGCAUGU
11,B11,0.134 KA relative to UGCAUGU
12,B12,0.13 KA relative to UGCAUGU
13,B13,0.0695 KA relative to UGCAUGU
14,B14,0.135 KA relative to UGCAUGU
15,B15,0.117 KA relative to UGCAUGU
16,B16,0.099 KA relative to UGCAUGU
17,B17,0.0746 KA relative to UGCAUGU
18,B18,0.0702 KA relative to UGCAUGU
19,B19,0.105 KA relative to UGCAUGU
20,B20,0.115 KA relative to UGCAUGU
